Measurements: PubChem BioAssay (NCI)
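Results reflect a 48-hour exposure of cells in 96-well plates to compound at five concentrations. GI50: concentration for 50% inhibition of growth.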 The source holds more than one record for some entries. Only these are listed. An entry can have further records. The tests behind the records often covered other concentration ranges, which the source does not state; a value can be the end of its range.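 TGI marks complete inhibition of growth.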

Legend:
Experiment in all cases: NCI tumour cell line growth inhibition, 48 h
MDA-MB-231 breast = system: MDA-MB-231 breast
NCI/ADR-RES ovarian = system: NCI/ADR-RES ovarian
NCI-H460 lung = system: NCI-H460 lung
HT29 colon = system: HT29 colon
MALME-3M melanoma = system: MALME-3M melanoma
SF-268 CNS = system: SF-268 CNS
MCF7 breast = system: MCF7 breast
CCRF-CEM leukemia = system: CCRF-CEM leukemia
TK-10 renal = system: TK-10 renal
HOP-92 NSCLC = system: HOP-92 NSCLC
RXF 393 renal = system: RXF 393 renal
SF-539 CNS = system: SF-539 CNS
SF-295 CNS = system: SF-295 CNS
NCI-H23 lung = system: NCI-H23 lung
UO-31 renal = system: UO-31 renal
OVCAR-5 ovarian = system: OVCAR-5 ovarian
HS 578T breast = system: HS 578T breast
SR leukemia = system: SR leukemia
NCI-H226 lung = system: NCI-H226 lung
RPMI-8226 leukemia = system: RPMI-8226 leukemia
K-562 leukemia = system: K-562 leukemia
M14 melanoma = system: M14 melanoma
SW-620 colon = system: SW-620 colon
U251 CNS = system: U251 CNS
DU-145 prostate = system: DU-145 prostate
786-0 renal = system: 786-0 renal
COLO 205 colon = system: COLO 205 colon
HOP-62 NSCLC = system: HOP-62 NSCLC
HCC-2998 colon = system: HCC-2998 colon
HL-60(TB) leukemia = system: HL-60(TB) leukemia
CAKI-1 renal = system: CAKI-1 renal
UACC-62 melanoma = system: UACC-62 melanoma
SK-OV-3 ovarian = system: SK-OV-3 ovarian
OVCAR-4 ovarian = system: OVCAR-4 ovarian
A549 NSCLC = system: A549 NSCLC
SK-MEL-2 melanoma = system: SK-MEL-2 melanoma
NCI-H522 lung = system: NCI-H522 lung
PC-3 prostate = system: PC-3 prostate

**Q.** Which TGI (MDA-MB-231 breast) does the source give for COC1(OC)C[C@H](C)[C@@]23O[C@]24c2cc(O)c5c(c2N[C@H]3C#C/C=C\C#C[C@]14O)C(=O)c1ccccc1C5=O here?
**A.** 67.1 nM and 1.58 µM

**Q.** And the TGI (NCI/ADR-RES ovarian)?
**A.** 15.3 nM and 15.8 µM

**Q.** And the TGI (NCI-H460 lung)?
**A.** < 1 nM and 382 nM

**Q.** What about the TGI (HT29 colon) of the same molecule?
**A.** 353 nM and 7.97 µM

**Q.** What about the TGI (MALME-3M melanoma) of the same molecule?
**A.** < 1 nM and 181 nM

**Q.** And the TGI (SF-268 CNS)?
**A.** 27.6 nM and 3.84 µM

**Q.** Which results are given for CO[C@H]1C[C@@H]2CC[C@@H](C)[C@@](O)(O2)C(=O)C(=O)N2CCCC[C@H]2C(=O)O[C@H]([C@H](C)C[C@@H]2CC[C@@H](OC(=O)C(C)(CO)CO)[C@H](OC)C2)CC(=O)[C@H](C)/C=C(\C)[C@@H](O)[C@@H](OC)C(=O)[C@H](C)C[C@H](C)/C=C/C=C/C=C/1C?
**A.** TGI (MCF7 breast): 19.4 nM and > 100 µM; TGI (CCRF-CEM leukemia): 4.63 nM and > 100 µM; TGI (TK-10 renal): 19.9 nM and > 100 µM; TGI (HOP-92 NSCLC): 90.9 nM and 11.3 µM; TGI (MALME-3M melanoma): 21.4 nM and > 58.1 µM

**Q.** How did the TGI (RXF 393 renal) turn out when Cc1c(N)nc([C@H](CC(N)=O)NC[C@H](N)C(N)=O)nc1C(=O)N[C@H](C(=O)N[C@H](C)[C@@H](O)[C@H](C)C(=O)N[C@H](C(=O)NCCc1nc(-c2nc(C(=O)NCCC[S+](C)C)cs2)cs1)[C@@H](C)O)C(OC1OC(CO)C(O)C(O)C1OC1OC(CO)C(O)C(OC(N)=O)C1O)c1cnc[nH]1 (stereo not given in full) was run?
**A.** 3.37 µM, 354 nM, 1.15 µM, 4.31 µM

**Q.** And the TGI (SF-539 CNS)?
**A.** 524 nM, 183 nM, 1.23 µM, 1.1 µM

**Q.** And the TGI (SF-295 CNS)?
**A.** 3.93, 1.41, 3, 10.3 µM

**Q.** What about the TGI (NCI-H23 lung) of the same molecule?
**A.** 8.63, 7.23, 4.03, 18.4 µM

**Q.** What about the TGI (UO-31 renal) of the same molecule?
**A.** 7.12, 1.91, 7.08, 4.78 µM

**Q.** What about the TGI (OVCAR-5 ovarian) of the same molecule?
**A.** 16.7 µM, 25 µM, 16.3 µM, > 100 µM

**Q.** And the GI50 (HS 578T breast)?
**A.** 112 nM [1 test] and 942 nM [mean of 2 tests] and 1.89 µM [mean of 33 tests]

**Q.** What about the TGI (HS 578T breast) of the same molecule?
**A.** 866 nM [1 test] and 14 µM [mean of 2 tests] and 18 µM [mean of 33 tests]

**Q.** What about the TGI (SR leukemia) of the same molecule?
**A.** 2.08 µM and 157 nM

**Q.** What about the TGI (NCI-H226 lung) of the same molecule?
**A.** 3.02, 4.39, 10.7, 22.8 µM

**Q.** What about the TGI (RPMI-8226 leukemia) of the same molecule?
**A.** 23.9 µM, > 25 µM, > 29 µM, > 100 µM

**Q.** And the TGI (K-562 leukemia)?
**A.** > 25 µM, 29 µM, 54.6 µM [1 test] and 21.8 µM [mean of 119 tests]

**Q.** And the TGI (M14 melanoma)?
**A.** 16.8 µM, 18.8 µM, 17 µM, > 100 µM

**Q.** And the TGI (SW-620 colon)?
**A.** 23.7 µM, 25 µM, 29 µM, > 100 µM

**Q.** What about the TGI (TK-10 renal) of the same molecule?
**A.** 23.7 µM, 5.17 µM, > 100 µM

**Q.** And the TGI (U251 CNS)?
**A.** 12.5 µM, 25 µM, 29 µM, > 100 µM

**Q.** And the GI50 (DU-145 prostate)?
**A.** 341 nM [mean of 2 tests] and 4.42 µM [mean of 33 tests]

**Q.** What about the GI50 (NCI-H460 lung) of the same molecule?
**A.** 18.5 nM and 389 nM

**Q.** What about the TGI (786-0 renal) of the same molecule?
**A.** 17.1, 4.23, 6.03, 37.1 µM

**Q.** And the TGI (COLO 205 colon)?
**A.** 21.9, 25, 29, 66.2 µM

**Q.** And the TGI (HOP-62 NSCLC)?
**A.** 2.12 µM, 1.25 µM, 1.65 µM, > 100 µM

**Q.** What about the TGI (HOP-92 NSCLC) of the same molecule?
**A.** 3 µM, 454 nM, 2.77 µM, 8.91 µM

**Q.** And the TGI (HCC-2998 colon)?
**A.** 20.4 µM, 25 µM, 29 µM, > 100 µM

**Q.** And the TGI (HL-60(TB) leukemia)?
**A.** 22.8, 12.2, 6.33, 67.9 µM

**Q.** And the TGI (CAKI-1 renal)?
**A.** 1.69, 25, 29, 36.8 µM

**Q.** What about the TGI (UACC-62 melanoma) of the same molecule?
**A.** 5.77, 4.64, 1.57, 19.2 µM

**Q.** What about the TGI (SK-OV-3 ovarian) of the same molecule?
**A.** 22.4 µM, 25 µM, 29 µM, > 100 µM

**Q.** What about the TGI (OVCAR-4 ovarian) of the same molecule?
**A.** 20.3, 10.4, 29, 56.5 µM

**Q.** What about the TGI (A549 NSCLC) of the same molecule?
**A.** 21.5 µM, 25 µM, 29 µM, > 100 µM

**Q.** What about the TGI (SK-MEL-2 melanoma) of the same molecule?
**A.** 21.3 µM, > 25 µM, > 29 µM, > 100 µM

**Q.** What about the TGI (NCI-H522 lung) of the same molecule?
**A.** 7.58, 5.11, 8.55, 17 µM

**Q.** What about the TGI (SF-268 CNS) of the same molecule?
**A.** 20, 8.45, 29, 43.4 µM

**Q.** Which results are given for Cc1cc2c(cc1C)[n+](=O)c(C(=O)c1cccs1)c(C(F)(F)F)n2[O-]?
**A.** TGI (TK-10 renal): 4.79 µM and 69.4 µM; TGI (PC-3 prostate): 2.64 µM and > 100 µM
